Results reported in PubChem BioAssay AID220 (DTP/NCI, 2004).
Inconclusive results are not listed. Not every entry of the source has a single result; some have several. Only these are listed. An entry can have further records. The records of an entry differ for a reason that is not stated; dose, time, organism, isomer or construct need not be as stated for each record. Starred links: 1 amine or outer side, 2 acyl side, 3 side chain; linkers in the order of their positions; H or OH if unused. Positions of bridges follow the written chain, without caps; N, C: chain ends. Non-standard residues stand in square brackets, D forms with d. Residues, ends and D or L forms follow the SMILES beside them. Chains are numbered I, II in the order given. Actinocin(9to1) = Cc1c2oc3c(C)ccc(C(=O)[*:1])c3nc-2c(C(=O)[*:2])c(N)c1=O; aThr = C[C@H](O)[C@H](N)C(=O)O; NMeV = CN[C@H](C(=O)O)C(C)C; Sar = CNCC(=O)O

Test system: CD8F1 mice, subcutaneous mammary adenocarcinoma, T/C%
Assay: NCI In Vivo Anticancer Drug Screen. Data for tumor model Mammary Adenocarcinoma CD8F1 (subcutaneous) in CD8F1
Details: higher = larger tumour
Experimental: The antitumor activity of compounds was measured in mice bearing transplantable tumors. Survival or tumor size were measured and the results are expressed as the measurement made in the treated group (T) divided by the measurement made in the vehicle treated control group (C). The tumor model used in this assay is Mammary Adenocarcinoma CD8F1 (subcutaneous) in CD8F1

[1] = endpoint: median tumor weight change, dose: 125.0 mg/kg/injection, schedule: Q01DX001 (ip), vehicle: saline with Tween-80
[2] = endpoint: median tumor weight change, dose: 250.0 mg/kg/injection, schedule: Q01DX001 (ip), vehicle: saline with Tween-80
[3] = endpoint: median tumor weight (est.), dose: 12.5 mg/kg/injection, schedule: Q07DX005 (ip), vehicle: Klucel (hydroxypropylcellulose) (HPC)
[4] = endpoint: median tumor weight (est.), dose: 25.0 mg/kg/injection, schedule: Q07DX005 (ip), vehicle: Klucel (hydroxypropylcellulose) (HPC)
[5] = endpoint: median tumor weight change, dose: 50.0 mg/kg/injection, schedule: Q01DX001 (ip), vehicle: Klucel (hydroxypropylcellulose) (HPC)
[6] = endpoint: median tumor weight (est.), dose: 50.0 mg/kg/injection, schedule: Q07DX005 (ip), vehicle: saline with Tween-80
[7] = endpoint: median tumor weight change, dose: 125.0 mg/kg/injection, schedule: Q01DX001 (ip), vehicle: Klucel (hydroxypropylcellulose) (HPC)

`CC[C@@]1(O)C[C@H](OC2CC(N(C)C)C(OC3CC(O)C(O[C@@H]4O[C@@H](C)C(=O)C=C4N)C(C)O3)C(C)O2)c2c(cc3c(c2O)C(=O)c2c(O)ccc(O)c2C3=O)[C@H]1C(=O)OC` (some centres not stated) was tested, and the T/C (endpoint: median tumor weight (est.), dose: 2.0 micrograms/kg/injection, schedule: Q07DX005 (ip), vehicle: Klucel (hydroxypropylcellulose) (HPC)) was 84 % of control and 195 % of control, the T/C (endpoint: median tumor weight (est.), dose: 8.0 micrograms/kg/injection, schedule: Q07DX005 (ip), vehicle: Klucel (hydroxypropylcellulose) (HPC)) was 122 % of control and 174 % of control and the T/C (endpoint: median tumor weight (est.), dose: 16.0 micrograms/kg/injection, schedule: Q07DX005 (ip), vehicle: Klucel (hydroxypropylcellulose) (HPC)) was 72 % of control and 189 % of control.
In the case of `Nc1ncnc2nc[nH]c12`, the T/C (endpoint: median tumor weight (est.), dose: 32.0 mg/kg/injection, schedule: Q07DX005 (ip), vehicle: Klucel (hydroxypropylcellulose) (HPC)) was 32 % of control, 84 % of control, 92 % of control, the T/C (endpoint: median tumor weight (est.), dose: 128.0 mg/kg/injection, schedule: Q07DX005 (ip), vehicle: Klucel (hydroxypropylcellulose) (HPC)) was 43 % of control, 75 % of control, 77 % of control and the T/C (endpoint: median tumor weight (est.), dose: 256.0 mg/kg/injection, schedule: Q07DX005 (ip), vehicle: Klucel (hydroxypropylcellulose) (HPC)) was 43 % of control, 55 % of control, 86 % of control.
For `CC(=O)Nc1cscc1NC(C)=O`, the T/C [1] was 66 % of control and 107 % of control.
In the case of `CCOC(=O)C(N)CSC(=O)NC` (configuration not stated), the T/C (endpoint: median tumor weight change, dose: 125.0 mg/kg/injection, schedule: Q01DX001 (ip), vehicle: saline) was 75 % of control and 101 % of control and the T/C (endpoint: median tumor weight change, dose: 1000.0 mg/kg/injection, schedule: Q01DX001 (ip), vehicle: saline) was 16 % of control and 58 % of control.
In the case of `COc1ccc(C(=O)c2no[n+]([O-])c2C(=O)c2ccc(OC)cc2)cc1`, the T/C [1] was 32 % of control and 94 % of control and the T/C [2] was 42 % of control and 99 % of control.
With `Cc1c2cc[n+](CCN3CCCCC3)cc2c(C)c2c1[nH]c1ccc(O)cc12` the T/C (endpoint: median tumor weight change, dose: 15.62 mg/kg/injection, schedule: Q01DX001 (ip), vehicle: suspension in saline) was 85 % of control and 119 % of control.
In the case of `CN(C)c1nc(N(C)C)nc(N(C)C)n1`, the T/C (endpoint: mean tumor weight, dose: 500.0 mg/kg/injection, schedule: Q07DX006 (ip), vehicle: saline) was 38 % of control and 100 % of control, the T/C (endpoint: median tumor weight (est.), dose: 128.0 mg/kg/injection, schedule: Q07DX005 (ip), vehicle: saline with Tween-80) was 22 % of control and 65 % of control and the T/C (endpoint: median tumor weight (est.), dose: 256.0 mg/kg/injection, schedule: Q07DX005 (ip), vehicle: saline with Tween-80) was 38 % of control and 167 % of control. The T/C (endpoint: median tumor weight change, dose: 400.0 mg/kg/injection, schedule: Q01DX001 (ip), vehicle: acid diluted with saline) was 50 % of control and 90 % of control.
In the case of `O=C(CCCN1CCC(O)(c2cccc(C(F)(F)F)c2)CC1)c1ccc(F)cc1`, the T/C (endpoint: median tumor weight (est.), dose: 6.25 mg/kg/injection, schedule: Q07DX005 (ip), vehicle: Klucel (hydroxypropylcellulose) (HPC)) was 106 % of control and 160 % of control, the T/C [3] was 58 % of control and 89 % of control and the T/C [4] was 72 % of control and 110 % of control.
In the case of `CC1(C)N=C(N)N=C(N)N1c1ccc(F)c(C(F)(F)F)c1`, the T/C (endpoint: median tumor weight (est.), dose: 12.5 mg/kg/injection, schedule: Q07DX005 (ip), vehicle: saline) was 55 % of control and 118 % of control, the T/C (endpoint: median tumor weight (est.), dose: 25.0 mg/kg/injection, schedule: Q07DX005 (ip), vehicle: saline) was 77 % of control and 106 % of control and the T/C (endpoint: median tumor weight (est.), dose: 50.0 mg/kg/injection, schedule: Q07DX005 (ip), vehicle: saline) was 89 % of control and 116 % of control.
With `CC(=O)N(C)C` the T/C (endpoint: median tumor weight change, dose: 1800.0 mg/kg/injection, schedule: Q01DX001 (ip), vehicle: saline) was 41 % of control and 69 % of control and the T/C (endpoint: median tumor weight change, dose: 3600.0 mg/kg/injection, schedule: Q01DX001 (ip), vehicle: saline) was 19 % of control and 58 % of control.
For `Nc1n[n+](-c2ccccc2)no1`, the T/C (endpoint: median tumor weight (est.), dose: 6.25 mg/kg/injection, schedule: Q07DX005 (ip), vehicle: water) was 16 % of control and 106 % of control, the T/C (endpoint: median tumor weight (est.), dose: 12.5 mg/kg/injection, schedule: Q07DX005 (ip), vehicle: water) was 57 % of control and 108 % of control and the T/C (endpoint: median tumor weight (est.), dose: 25.0 mg/kg/injection, schedule: Q07DX005 (ip), vehicle: water) was 15 % of control and 113 % of control.
`CN(C)c1ccc2c(N(C)C)cc(N(C)C)nc2c1` was tested, and the T/C [3] was 39 % of control and 115 % of control, the T/C [4] was 39 % of control and 75 % of control and the T/C (endpoint: median tumor weight (est.), dose: 50.0 mg/kg/injection, schedule: Q07DX005 (ip), vehicle: Klucel (hydroxypropylcellulose) (HPC)) was 42 % of control and 123 % of control.
In the case of `CC[PH+](CC)CC[S-].CC[PH+](CC)CC[S-].[Au+].[Au+]`, the T/C [5] was 51 % of control and 97 % of control.
In the case of `OCC1OC(n2cnc3cc(Cl)c(Cl)cc32)C(O)C1O` (configuration not stated), the T/C [6] was 106 % of control and 160 % of control and the T/C (endpoint: median tumor weight (est.), dose: 100.0 mg/kg/injection, schedule: Q07DX005 (ip), vehicle: saline with Tween-80) was 79 % of control and 167 % of control.
With `C1OC1CN1CCN(CC2CO2)CC1` (configuration not stated) the T/C (endpoint: median tumor weight (est.), dose: 6.25 mg/kg/injection, schedule: Q07DX005 (ip), vehicle: saline) was 9 % of control and 84 % of control.
`N#CC(=C1C=CC(=NO)C=C1)c1ccc(Cl)cc1` was tested, and the T/C (endpoint: mean tumor weight, dose: 25.0 mg/kg/injection, schedule: Q07DX006 (ip), vehicle: saline with Tween-80) was 53 % of control and 84 % of control and the T/C (endpoint: mean tumor weight, dose: 50.0 mg/kg/injection, schedule: Q07DX006 (ip), vehicle: saline with Tween-80) was 46 % of control and 75 % of control.
In the case of `CC(C)NC(=O)N(CCCCBr)N=O`, the T/C [7] was 16 % of control and 61 % of control and the T/C (endpoint: median tumor weight change, dose: 250.0 mg/kg/injection, schedule: Q01DX001 (ip), vehicle: Klucel (hydroxypropylcellulose) (HPC)) was -59 % of control and -18 % of control.
In the case of `CN(C)C1C(=O)C(C(=O)NP(=O)(NCCCO)N(CCCl)CCCl)=C(O)C2(O)C(=O)C3=C(O)c4c(O)cccc4C(C)(O)C3CC12` (configuration not stated), the T/C [1] was 81 % of control and 107 % of control.
`Cc1cc(NCCN(C(C)C)C(C)C)nc(/N=C(\N)Nc2ccc(Cl)c(C(F)(F)F)c2)n1` was tested, and the T/C (endpoint: median tumor weight change, dose: 25.0 mg/kg/injection, schedule: Q01DX001 (ip), vehicle: Klucel (hydroxypropylcellulose) (HPC)) was 49 % of control and 75 % of control.
For `CCCCOC(=O)/C=C(\Br)C(=O)OCCCC`, the T/C [6] was 86 % of control and 160 % of control.
In the case of `N[C@@H](Cc1ccc(N(CCCl)CCCl)cc1)C(=O)O`, the T/C (endpoint: median tumor weight (est.), dose: 8.0 mg/kg/injection, schedule: Q01DX001 (ip), vehicle: suspension in saline) was 21 % of control, 28 % of control, 50 % of control.
`Cc1[nH]c(=O)[nH]c(=O)c1N(CCF)CCCl` was tested, and the T/C [5] was 1 % of control, 17 % of control, 44 % of control.
In the case of `CCN(CC)CCCNc1nccc2c(C)c3[nH]c4ccncc4c3cc12`, the T/C (endpoint: median tumor weight change, dose: 12.5 mg/kg/injection, schedule: Q01DX001 (ip), vehicle: other) was 43 % of control, 49 % of control, 113 % of control.
`Cc1c2oc3c(C)ccc(C(=O)N[C@@H]4C(=O)N[C@H](C(C)C)C(=O)N5CCC[C@H]5C(=O)N(C)CC(=O)N(C)[C@@H](C(C)C)C(=O)O[C@H]4C)c3nc-2c(C(=O)N[C@@H]2C(=O)N[C@H](C(C)C)C(=O)N3CCC[C@H]3C(=O)N(C)CC(=O)N(C)[C@@H](C(C)C)C(=O)O[C@H]2C)c(N)c1=O` (I: [aThr][dV]P[Sar][NMeV] / II: [aThr][dV]P[Sar][NMeV]; ester I:1-I:C, II:1-II:C; linker I:N-II:N via Actinocin(9to1)) was tested, and the T/C (endpoint: median tumor weight change, dose: 1.0 mg/kg/injection, schedule: Q01DX001 (ip), vehicle: saline) was -80 % of control and -46 % of control.
`CC[C@H](CC[C@@H](C)C1CC[C@H]2[C@@H]3CC=C4C[C@@H](OP(=O)(N5CC5)N5CC5)CC[C@]4(C)[C@H]3CC[C@]12C)C(C)C` (some centres not stated) was tested, and the T/C [2] was 54 % of control and 81 % of control and the T/C (endpoint: median tumor weight change, dose: 500.0 mg/kg/injection, schedule: Q01DX001 (ip), vehicle: saline with Tween-80) was 35 % of control and 87 % of control.
With `C[C@]12C=CC(=O)C=C1CC[C@@H]1[C@@H]2[C@@H](O)C[C@@]2(C)[C@H]1CC[C@]2(O)C(=O)CO` the T/C (endpoint: median tumor weight change, dose: 400.0 mg/kg/injection, schedule: Q01DX001 (ip), vehicle: Klucel (hydroxypropylcellulose) (HPC)) was 45 % of control, 71 % of control, 103 % of control.
With `CC[N+](CC)(CC)CC` the T/C (endpoint: median tumor weight change, dose: 18.0 mg/kg/injection, schedule: Q01DX001 (ip), vehicle: saline with Tween-80) was 20 % of control and 56 % of control and the T/C (endpoint: median tumor weight change, dose: 26.0 mg/kg/injection, schedule: Q01DX001 (ip), vehicle: saline with Tween-80) was -20 % of control and 13 % of control.
In the case of `Nc1ncnc2c1nnn2C1OC(CO)C(O)C1O` (configuration not stated), the T/C [7] was 40 % of control and 96 % of control.
For `CC(C)CCCCCCCCCCCCC(=O)NCC(=O)NC1C(O)C(O)C(Nc2ncnc3nc[nH]c23)OC1C(O)CO` (configuration not stated), the T/C (endpoint: median tumor weight (est.), dose: 4.0 mg/kg/injection, schedule: Q07DX005 (ip), vehicle: Klucel (hydroxypropylcellulose) (HPC)) was 14 % of control and 97 % of control.
